From article PMC4336329 (PLoS ONE, 2015)
Hit rate of the full screen: of about 310,000 compounds, about 14,000 (4.5%) showed an effect of 50% or more. Effects have a minus sign here. The list shows a part of the results.

Each compound was assayed against human ether-à-go-go-related gene (hERG) potassium channel (human, UniProt Q12809) (assay: primary screen, population patch clamp on CHO cells stably expressing hERG).
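Note: peak tail current of the secondary pulse compared with the same well before compound.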

human ether-à-go-go-related gene (hERG) potassium channel, sequence (Q12809 whole entry, looked up): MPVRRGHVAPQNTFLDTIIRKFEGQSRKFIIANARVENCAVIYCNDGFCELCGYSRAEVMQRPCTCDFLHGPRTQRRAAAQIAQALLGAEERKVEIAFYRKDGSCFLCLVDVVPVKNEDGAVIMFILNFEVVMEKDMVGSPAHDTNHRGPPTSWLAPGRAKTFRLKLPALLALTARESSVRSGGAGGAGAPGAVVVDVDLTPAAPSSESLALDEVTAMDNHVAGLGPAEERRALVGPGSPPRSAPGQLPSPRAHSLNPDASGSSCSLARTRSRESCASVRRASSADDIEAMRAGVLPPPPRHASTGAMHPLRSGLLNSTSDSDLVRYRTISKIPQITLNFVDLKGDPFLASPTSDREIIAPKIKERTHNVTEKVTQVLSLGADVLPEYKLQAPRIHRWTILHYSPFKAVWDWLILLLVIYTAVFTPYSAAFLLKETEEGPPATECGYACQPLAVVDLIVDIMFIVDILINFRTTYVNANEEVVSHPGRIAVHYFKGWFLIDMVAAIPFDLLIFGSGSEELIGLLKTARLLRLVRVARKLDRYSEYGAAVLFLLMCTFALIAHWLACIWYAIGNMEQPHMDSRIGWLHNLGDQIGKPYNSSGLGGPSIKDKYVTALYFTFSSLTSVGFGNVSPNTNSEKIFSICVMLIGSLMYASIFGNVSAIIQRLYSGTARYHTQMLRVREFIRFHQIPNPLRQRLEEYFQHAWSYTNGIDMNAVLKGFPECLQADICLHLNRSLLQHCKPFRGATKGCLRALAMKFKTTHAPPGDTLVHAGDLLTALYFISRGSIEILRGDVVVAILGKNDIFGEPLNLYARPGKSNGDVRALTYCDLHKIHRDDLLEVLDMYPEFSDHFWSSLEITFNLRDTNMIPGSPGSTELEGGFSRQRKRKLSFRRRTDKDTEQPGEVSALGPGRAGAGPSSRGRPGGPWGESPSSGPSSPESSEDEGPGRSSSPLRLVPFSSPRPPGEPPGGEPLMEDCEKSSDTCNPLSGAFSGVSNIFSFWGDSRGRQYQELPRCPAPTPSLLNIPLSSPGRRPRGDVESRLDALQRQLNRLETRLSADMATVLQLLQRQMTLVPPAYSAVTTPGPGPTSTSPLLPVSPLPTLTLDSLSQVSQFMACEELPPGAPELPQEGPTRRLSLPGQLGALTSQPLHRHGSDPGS

Structure (SMILES)	hERG current change (%, negative = inhibition) at 10uM [%]
Cc1ccc(-c2cc3onc(-c4ccccc4)c3c(=O)n2C)cc1	4.05
Cc1ccc(-c2nn3c(C)nnc3s2)cc1NC(=O)c1cccnc1	-24.4
CCNc1nc(NCc2ccccc2)nc(SCC(=O)Nc2ccccc2)n1	0.272
CN1CCCN=C1/C=C/c1cccs1.O=C(O)C(O)C(O)C(=O)O	9.07
CC(C)C(CO)NC(=O)CC(=O)NC(CO)C(C)C (stereo not shown)	3.54
CCCCOc1ccc(C(=O)OCC(=O)N2CCOCC2)cc1	-2.42
Cn1c(CCNC(=O)c2cccs2)nnc1SCC(=O)N1CCN(c2ccccc2)CC1	15.8
Cc1ccc(S(=O)(=O)NCC23C=CC(O2)C2C(=O)N(c4ccccc4)C(=O)C23)cc1 (stereo not shown)	2.53
C#CCNC(=O)C1=C[C@@H](C2CC2)[C@H](CCCO)[C@@H](OCC)O1	26.4
COc1cccc(CNC(=O)C(=O)NCC2CCCO2)c1 (stereo not shown)	-6.32
CCCc1cc(C(=O)Nc2ccc(C(=O)c3ccc(F)cc3)cc2)n(C)n1	1.41
CCc1nnc(N2C(=N)SCC2=O)s1	28.3
O=C1[C@H]2[C@@H](C(=O)N1c1cccc3ccccc13)C1(C(=O)c3ccccc3C1=O)N1CCC[C@@H]21	-69
O=C(Nc1ccc(Br)cc1)c1cc2ccccn2n1	-9.23
CCOc1cccc2cc(-c3csc(NC(=O)CCC(=O)NCCCN4CCC(C)CC4)n3)c(=O)oc12	-44.6
CCOC(=O)C1(CCOc2ccccc2)CCN(Cc2cc(OC)cc(OC)c2)CC1	-79.8
CCN(CC1CCCN(CCc2cccc(F)c2)C1)C(=O)c1cc(C)oc1C (stereo not shown)	-66.8
CN1/C(=C\C(=O)c2cccnc2)Sc2ccccc21	4.34
COc1cc(C(=S)N2CCOCC2)cc(OC)c1OC(=O)c1ccc([N+](=O)[O-])cc1[N+](=O)[O-]	-4.69
COc1ccc(NC(=O)COC(=O)[C@@H]2CCCN2C(=O)c2cccs2)c(OC)c1	-27.5
Cc1cc(F)ccc1S(=O)(=O)Nc1ccccc1C(=O)Nc1ccccc1-c1nc2ccccc2[nH]1	4.92
CCCSc1cc(=O)n(-c2ccc(F)cc2)nc1C(=O)OCC	-3.54
COc1ccc(NC(=O)CSc2nnc(-c3ccccn3)n2N)c(OC)c1	2.63
CN(CCCCCCCCCCN(C)C(=O)Oc1cccc([N+](C)(C)C)c1)C(=O)Oc1cccc([N+](C)(C)C)c1.[Br-]	-1.08
CCOC(=O)N1CCC(NS(=O)(=O)c2cc3c(cc2Cl)NC(=O)CO3)CC1	-38.3
O=C(NC1CCCCC1)c1cccnc1C(=O)O	4.81
COC(=O)c1cn(NC(=O)C2CCCO2)c(=O)c2ccccc12 (stereo not shown)	15.5
CC(=O)Oc1ccc(C(=O)NCCc2ccccc2)cc1	15.5

Structure (SMILES)	hERG current change (%, negative = inhibition) at 10uM [%]
Brc1ccc(CN2CC[C@H]3C=CCc4cccc(c43)C2)cc1	0.0241
c1ccc(-n2cc(CN3CCCC3)c(-c3ccc4c(c3)OCO4)n2)cc1	-73
Cc1ccc(CSCc2ccc(C(=O)NCCCN3CCOCC3)o2)cc1	-51.8
CCc1cc(C(=O)NCC(c2cccs2)N2CCOCC2)sc1C (stereo not shown)	-14.1
O=C(Nc1ccc(NC(=O)C2CC2)nc1)c1ccccc1F	5.75
Cc1ccc(-c2ccc(CCC(=O)O)n2C(C)C)cc1	9.59
COc1ccc(-n2nc(C(=O)NCC(=O)N3CCC4(CC3)OCCO4)c3ccccc3c2=O)c(OC)c1	2.17
COc1cccc(COC(=O)CCNC(=O)c2ccc(Cl)cc2)c1OC	-1.56
COc1ccc(C(=O)N/C(=C\c2ccco2)C(=O)NC2CCS(=O)(=O)C2)cc1 (stereo not shown)	18.4
O=C(Nc1cccc(-c2csc(Nc3ccccc3)n2)c1)c1ccccc1	2.4
Cc1ccc(-c2cc3ccccc3nc2N2CCCC2)cc1	9.8
COc1ccccc1NC(=O)COC(=O)c1ccccn1	12
CN1CCN(S(=O)(=O)c2ccc(N3CCN(S(=O)(=O)c4cccs4)CC3)nc2)CC1	20.8
COC(=O)C1=C(c2ccc(F)cc2F)C[C@@H]2CC[C@H]1N2C(=O)NC1Cc2ccccc2C1	-16.9
CC(C)N=C1NN=C(c2cccs2)C(CC(=O)O)S1 (stereo not shown)	-0.535
O=C1CCCN1CCC1CCN(C2CC(=O)N(c3ccc(Cl)cc3)C2=O)CC1 (stereo not shown)	-14.4
Cc1ccc(CSCC(=O)N(C)CC(=O)Nc2ccc(Br)cc2C)cc1	-22.9
Nc1nc(SCc2c(F)cccc2Cl)[nH]c(=O)c1-c1ccccc1	4.43
COC(=O)CSc1nc2cc3c(cc2cc1C#N)OCO3	29.5
O=C(NCCCN1CCCC1=O)c1cc(S(=O)(=O)N2CCOCC2)ccc1Cl	13.9
Cc1cc(OCC(=O)NC2CCN(Cc3ccccc3)CC2)c2c(C)c(C)c(=O)oc2c1	-22.4
CCOCCCN(C(=O)c1snc(C(N)=O)c1N)C(C(=O)NC(C)(C)C)c1ccc(Cl)cc1 (stereo not shown)	-33.1
CC(C)c1ccc(/C=N/N2CCCCC2)cc1.O=C(O)C(=O)O	-84.3
Cn1cc(/C=C/C(=O)N2CCCC(C(=O)c3cccc4ccccc34)C2)cn1 (stereo not shown)	-8.09
O=C1c2ccccc2NC(c2ccccc2F)N1NS(=O)(=O)c1ccccc1 (stereo not shown)	19.2
O=C(NNC(=O)C(O)(c1ccccc1)c1ccccc1)C1CC1	20.3
Cl.Nc1ccc(-c2nc3c(ccc4ccccc43)[nH]2)cc1	12.7
